The values below come from patent publication US20230000797A1, “COMPOSITIONS AND METHODS FOR TREATING MOTOR DISORDERS” (ARIZONA BOARD OF REGENTS ON BEHALF OF THE UNIVERSITY OF …, priority 2015, published 2023).

The test system of data set [1] is unilaterally 6-OHDA-lesioned LID rats. The experiment in a line: L-DOPA-induced AIMs in the preclinical rat LID model (10 hr ketamine 'infusion' paradigm or acute injection). The following applies: cohort #1.
For data set [2] the test system is unchanged. Particulars: literature (Flores et al., 2014; Paquette et al., 2010); cited from earlier work.

Regarding `CNC1(c2ccccc2Cl)CCCCC1=O` (racemic) [ketamine, (RS)-2-(2-Chlorophenyl)-2-(methylamino)cyclohexanone], the “time before the baseline AIMs score was reached again” value in data set [1] (10 mg/kg ketamine-'infusion') came out at 10 days. Besides, the “time before the baseline AIMs score level was reached again” value in data set [1] (15 mg/kg ketamine-'infusion') was 31 days.

Regarding `C[C@]12N[C@H](Cc3ccccc31)c1ccccc12` [MK-801], the “ipsiversive turning behavior (worsening of the Parkinsonism)” value in data set [2] is recorded as “induce the ipsiversive turning behavior”.
